Read counts are not given, so values of variants with three or more changes are uncertain.
B1: CPEB3 Ribozyme (parent)
chain: UAACAGGGGGCCACAGCAGAAGCGUUCACGUCGCAGCCCCUGUCAGAUUCUGGUGAAUCUGCGAAUUCUGCUGUAUAUCUC

Variants of: B1
Assay: self-cleavage, relative activity (ratio to wild type); higher = more cleavage; in vitro, sequencing
In short: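 For each CPEB3 ribozyme variant, relative activity is its cleaved/total read fraction divided by the unmutated ribozyme's. Barcoded error-prone PCR libraries were transcribed by T7 RNA polymerase (5 hours, 37°C) and held in DNase I for 15 min before an EDTA stop, with cleavage occurring throughout. Template-switching reverse transcription and Illumina sequencing were used to read the RNAs. A 5-read minimum applied, and results are the mean of three batches.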
Work on UAACUGGGGGCUACAGCAGAAGCGAUCACGUCGCGGCCCCUGUCAGAUUCUGGUGAAUCUGCGAAUCCCGCAGUAUAUCUC [A5U C12U U25A A35G U67C U69C U72A] yielded a self-cleavage of 0.05. UAACUAGGGGCCGCAGCAGAAGCGUUCACGUUGCAGCCCCUGUCAGAUUCCGGUGUAUCUGCGAAUUCUGCUGUUUAUCUC [A5U G6A A13G C32U U51C A56U A75U] gave a self-cleavage of 0.04. UAACUGGGGGCCACAGCAGAAGCGUUCACGUCGUAGCCCGUGUCUGAUACUGGUGAAUCUGCGAAUUCUGCUGUAUAUCUC [A5U C34U C40G A45U U49A] gave a self-cleavage of 0.1. Work on UAACUGGGGGCCACAGCAGAAGUGUUCUCGUCGCGGCCCCUGUCAGAUUCCGGUGAGUCUGCGAAUUCUGCUGUAUAUCUC [A5U C23U A28U A35G U51C A57G] yielded a self-cleavage of 0.71. UAACUGGGGGCCACAGGAGAAGCGUUCACGUCGCAGCCCCUGUCAGAUUCUGGUGAAUCCGCGAAUUCUGCUGUAUACCUC [A5U C17G U60C U78C] gave a self-cleavage of 0.22. In the case of UAACUGGGGGCUACAGCAGAAGCGUUCACGUCGCAGCCCCUGUCAGACUCUGGUGAAUCCGCGAAUUCGGCUGUAUAUCUC [A5U C12U U48C U60C U69G], the self-cleavage is reported as 0.14. UAACUGGGGGCCACAGCAGAAGCGUUCACGUCGCAGCUCCUGUCAGAUUCUGGUGAAACUGCGGAUUCUGCUGUAUACCUC [A5U C38U U58A A64G U78C] showed a self-cleavage of 0.23. Work on UAACUGGGGGGCACAGCAGAAGCGCUCACGUCGCAGCCCCUGCCAGAUUCCGGUGAAUCUGCGAAUCCUGCUGUAUAUCUC [A5U C11G U25C U43C U51C U67C] yielded a self-cleavage of 0.06. Variant UAACUGGGGGUCACUGCUGGAGCGUUCACGUCGCAGCCCCUGUCGGAUUCUGGUGAAUCUGCGAAUUCCGCUGUAUAUCUC [A5U C11U A15U A18U A20G A45G U69C] has a self-cleavage of 0.23. UAACUGGGGGCCACAGCAGAAGUGUUCACGUCGCAGCCCCUGUCAGAUUCUGGUGAAUCCGCGAAUUCUGCUGUAUAUCUC [A5U C23U U60C] gave a self-cleavage of 0.3. UAACUGGGGGCCACAGCAGAAGAGUUCACGUCGCAGCCCCUGUCGGAUUCUGAUGAAUCUGCGAGUUCUGCUGUAUAUCUC [A5U C23A A45G G53A A65G] gave a self-cleavage of 0.1. Variant UAACUGGGGGCUACAGCAGAAGCGUUCGCGUCGCAGCCCCUGUCAGAUUCUGGUGAGUCUGCGAAUUCUGCUGUAUAUCUC [A5U C12U A28G A57G] has a self-cleavage of 0.75. In the case of UAACUGGGGGCCACAGCAGAAGCGUUCACGUAGCAGCGCCUGUCAGAUUCUGGUGAAUCUGCGAAUUCCGCUGUAUAUCUC [A5U C32A C38G U69C], the self-cleavage is reported as 0.16. Work on UAACUGGGGGCUACAGCAGAAGCGUUCACGUCGCAGCCCCUGUCAGAUUCUGGAGAAUCUGCCAGUCCUGCUGUAUAUCUC [A5U C12U U54A G63C A65G U67C] yielded a self-cleavage of 0.32. Variant UAACUGGGGGUCACAGCAGAAGCGUUCACGUCGCAGCCCCUGUCAGAUCCUGGUGAAUCUGCGAAUUCUGCUGUAUAUCUC [A5U C11U U49C] has a self-cleavage of 0.21. UAACUGGGGGCCACAGGAGAAGCGUUCACGUCGCUGCCCCUGUCAGAUUCUGGUGAAUCUGCGAAUUCUGCUGUAUAUCUC [A5U C17G A35U] gave a self-cleavage of 0.05. In the case of UAACUGGGGGCCACAGCAGAAGCGUUCACGUCGCAGCCCAUGUCAGAUUCUGGUGAAUCAGCGAAUUCUGCUGUUUAUCUC [A5U C40A U60A A75U], the self-cleavage is reported as 0.06. In the case of UAACUGGGGGCCACAGAAGAAGCGUCCACGUCGCAGCCCCUGUCAGACUCUGGUGAAUCUGCGAAUUCUGCUGUAUAUCUC [A5U C17A U26C U48C], the self-cleavage is reported as 0.09. UAACUGAGGGCCACAGCAGAAGCGUUCACGUCGCAGCCCCUGUCAGAUUCUGGUGAGUCUGCGAAUUCUGCUGUAUAUCUC [A5U G7A A57G] gave a self-cleavage of 0.14. For UAACUGGGGGCGACAGCAGAAGCGUUCACGUCGCAGCCCCUGUCAGACUCUGGUGAAUCUGCGAAUUCUGCUGUAUAUCUC [A5U C12G U48C], the self-cleavage was 0.49. UAACUUGGGGCCACAGCAGAAGCGUUCACGCCGCAGUCCCUGUCAGAUUCUGGUGAAUCUGCGAAUUCUGCAGUAUGUCUC [A5U G6U U31C C37U U72A A77G] gave a self-cleavage of 0.07. Work on UAACUGGGGGCCACAGCAGAAGUGUUCACGUAGCAGCCCCUGUCUGAUUCUGGUGAAUCUGCGAAUUCUGCUGUAUAUCUC [A5U C23U C32A A45U] yielded a self-cleavage of 0.28. Work on UAACUGGGGGUCACAGCAGGAGCGUUCACGUCGCAGCCCCCGUCAGGUCCUGGUGAAUCUGCGAAUUCUGCUGUAUAUCUC [A5U C11U A20G U41C A47G U49C] yielded a self-cleavage of 0.04. UAACUAGGGGCCACAGCAUAAGCGUUAACGUCGCAGCACCUGUCAGAUUCUGGUGAAUCUGCGAAUUCUGCUGUAUAUCUC [A5U G6A G19U C27A C38A] gave a self-cleavage of 0.14. UAACUGGGGGGCACAGCAGAAGCGUUCACGACGCAGCCCCUGUCAGAUUCUGGUGAAUCUGCGAAUUCUGCUGUAUAUCUC [A5U C11G U31A] gave a self-cleavage of 0.14. With UAACUGAGGGCCACAGCUGAAGCGUCCACGUCGCAGCCCCUGCCGGAUUCUGGCGAAUCUGCGAAUUCUGCUGUAUAUCUC [A5U G7A A18U U26C U43C A45G U54C] the self-cleavage was 0.04. UAACUGGGGGCUACAGCAGGAGCGUUCACGUCGCCGCCCCUGUCAGAUUCUGGUGAAUCUGCGAACUCUGCUGUAUAUCUC [A5U C12U A20G A35C U66C] showed a self-cleavage of 0.25. UAACUGGGGGCUACAGCAGAAGCGUUCACGUCGCUGCCCCUGUCAGAUUCUGGUGAAUCUGCGAAUUCUGCUGUAUACCUC [A5U C12U A35U U78C] showed a self-cleavage of 0.7. For UAACUGGGGGCCACAGCAGAAGUGUUCACGUUGCAGCCCUUGUCAGAUUCUGGCGAAUCUGCGAAUUCUGCCGCAUAUCUC [A5U C23U C32U C40U U54C U72C U74C], the self-cleavage was 0.06. With UAACUGGGGGCCACAGCAGAAGAGUUCACGUCGCAGCCCCCGUCAGACCCUGGUGAAUCUGCGAAUUCUGCUGUAUAUCUC [A5U C23A U41C U48C U49C] the self-cleavage was 0.15. UAACUGGGGGCCAUAGCAGAAGCGUUCACGUCGCAGCCCCUGUCAGAUUCUGGCGAAACUGCGGAUUCUGCUGUAUAUCUC [A5U C14U U54C U58A A64G] showed a self-cleavage of 0.34. UAACUGGGGGCCAUAGCGGAAGCGUUCACGUCGCAGCCCCUGUCAGAUUCUGGUGAAUCUGCGAAUUCUGCAGUAUAACUC [A5U C14U A18G U72A U78A] showed a self-cleavage of 0.69. UAACUGGGGGCCACAGCAGAAGCGUUCACGUUGCAGCCCCUGUCAGAUUCUGGUGAAUCCGCGAAUUCUGCUGUACAUCCC [A5U C32U U60C U76C U80C] gave a self-cleavage of 0.22. With UAACUGAGGGCCACAGCAGAAGCGUUCACGUCGCAGCCCCAGUCAGAUUCUGGUGAAUCUGCGAAAUCUGCUGUAUAUCUC [A5U G7A U41A U66A] the self-cleavage was 0.06.

Source: the RNAGym collection of RNA variant scans (doi:10.1093/nar/gkz1192)
